# Data published in the supplement of paper PMC8728848.
# This is one part of the list.
# B1: PX9937D-bvu-500-26-500 (Bacteroides vulgatus) (protein)
# chain: DPVSDITDLNYWKTPEQFDSFVFGLHSRFRSHSWNMFLLGEARSDVFGGIPFGGEATQGMERFPYNTLNAENPGISGFGDLYQNINQMNLFISRTLHTDVLTESARNYYLGQVYGLRAYYMYQLYRSWGDVVFTEEPSLGFEVGKLAKAATPAAEIFEQVKKDIESSLSYFGSDYTIKEKKSLWSKAATLMLKADVYLWSAHRDGGEGDARTAKNALVDIQNNISRSNLDLMDTYQGVFAYDNKGNKEIIFTIHNELFEYNLWNGNNDLFPQADYLGKFYNADGTLINTSVENNFGIMRLMVKLENFKKFLPGDTRRDVTLKDVYNKVENGKLELVGVYPHKYWGVMNGSTRVRCDDYPIYRYSDLLLMLAEAKVLLGEDPATEINRVRRRAFGDAYDASTVGFPNQEVDKRPADAVLQERLFEFMLEGKRWYDLRRFGDSYVLDYTPAEPARLLWPINQGALTNNPLLKQTVGY
# Assays:
# Assay in all cases: glycan array binding signal (z-score within array); higher = stronger binding
# Details in all cases: glycan notation: IUPAC condensed, linker removed
# [1] = target: Gal(b1-4)GlcNAc(b1-2)Man(a1-3)[Gal(b1-4)GlcNAc(b1-2)Man(a1-6)]Man(b1-4)GlcNAc(b1-4)[Fuc(a1-6)]GlcNAc
# Summary of the method: (§1)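 Negative Z-scores can be read as non-binding. The Z-score is calculated within each array and then averaged across arrays of one protein sequence at different concentrations or buffers and across linkers. Arrays, 3228 in all, were curated from the Consortium for Functional Glycomics database and kept only where the protein sequence was available.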
# [2] = target: Gal(b1-4)GlcNAc(b1-2)Man(a1-3)[Gal(b1-4)GlcNAc(b1-2)Man(a1-6)][Gal(b1-4)GlcNAc(b1-4)]Man(b1-4)GlcNAc(b1-4)[Fuc(a1-6)]GlcNAc
# Summary of the method: as §1
# [3] = target: Gal(b1-4)GlcNAc(b1-2)Man(a1-3)[Gal(b1-4)GlcNAc(b1-2)Man(a1-6)][GlcNAc(b1-4)]Man(b1-4)GlcNAc(b1-4)[Fuc(a1-6)]GlcNAc
# Summary of the method: as §1
# [4] = target: Gal(b1-4)GlcNAc(b1-2)Man(a1-3)[GlcNAc(b1-2)Man(a1-6)]Man(b1-4)GlcNAc(b1-4)GlcNAc
# Summary of the method: as §1
# [5] = target: Gal(b1-4)GlcNAc(b1-2)Man(a1-3)[GlcNAc(b1-4)][Gal(b1-4)GlcNAc(b1-2)Man(a1-6)]Man(b1-4)GlcNAc(b1-4)GlcNAc
# Summary of the method: as §1
# [6] = target: Gal(b1-4)GlcNAc(b1-2)Man(a1-3)[Man(a1-6)]Man(b1-4)GlcNAc(b1-4)GlcNAc
# Summary of the method: as §1
# [7] = target: Gal(b1-4)GlcNAc(b1-2)Man(a1-6)Man(b1-4)GlcNAc(b1-4)GlcNAc
# Summary of the method: as §1
# [8] = target: Gal(b1-4)GlcNAc(b1-2)Man(a1-6)[GlcNAc(b1-2)Man(a1-3)]Man(b1-4)GlcNAc(b1-4)GlcNAc
# Summary of the method: as §1
# [9] = target: Gal(b1-4)GlcNAc(b1-2)Man(a1-6)[Man(a1-3)]Man(b1-4)GlcNAc(b1-4)GlcNAc
# Summary of the method: as §1
# [10] = target: Gal(b1-4)GlcNAc(b1-2)[Gal(b1-4)GlcNAc(b1-4)]Man(a1-3)[Gal(b1-4)GlcNAc(b1-2)Man(a1-6)]Man(b1-4)GlcNAc(b1-4)GlcNAc
# Summary of the method: as §1
# [11] = target: Gal(b1-4)GlcNAc(b1-2)[Gal(b1-4)GlcNAc(b1-4)]Man(a1-3)[Gal(b1-4)GlcNAc(b1-2)[Gal(b1-4)GlcNAc(b1-6)]Man(a1-6)]Man(b1-4)GlcNAc(b1-4)GlcNAc
# Summary of the method: as §1
# [12] = target: Gal(b1-4)GlcNAc(b1-2)[Gal(b1-4)GlcNAc(b1-4)]Man(a1-3)[GlcNAc(b1-4)][Gal(b1-4)GlcNAc(b1-2)Man(a1-6)]Man(b1-4)GlcNAc(b1-4)GlcNAc
# Summary of the method: as §1
# [13] = target: Gal(b1-4)GlcNAc(b1-2)[Gal(b1-4)GlcNAc(b1-4)]Man(a1-3)[GlcNAc(b1-4)][Gal(b1-4)GlcNAc(b1-2)[Gal(b1-4)GlcNAc(b1-6)]Man(a1-6)]Man(b1-4)GlcNAc(b1-4)GlcNAc
# Summary of the method: as §1
# [14] = target: Gal(b1-4)GlcNAc(b1-2)[Gal(b1-4)GlcNAc(b1-6)]Man(a1-6)[Gal(b1-4)GlcNAc(b1-2)Man(a1-3)]Man(b1-4)GlcNAc(b1-4)GlcNAc
# Summary of the method: as §1
# [15] = target: Gal(b1-4)GlcNAc(b1-2)[Gal(b1-4)GlcNAc(b1-6)]Man(a1-6)[Gal(b1-4)GlcNAc(b1-2)Man(a1-3)]Man(b1-4)GlcNAc(b1-4)[Fuc(a1-6)]GlcNAc
# Summary of the method: as §1
# [16] = target: Gal(b1-4)GlcNAc(b1-2)[Gal(b1-4)GlcNAc(b1-6)]Man(a1-6)[GlcNAc(b1-4)][Gal(b1-4)GlcNAc(b1-2)Man(a1-3)]Man(b1-4)GlcNAc(b1-4)GlcNAc
# Summary of the method: as §1
# [17] = target: Gal(b1-4)GlcNAc(b1-2)[Gal(b1-4)GlcNAc(b1-6)]Man(a1-6)[GlcNAc(b1-4)][Gal(b1-4)GlcNAc(b1-2)[Gal(b1-4)GlcNAc(b1-4)]Man(a1-3)]Man(b1-4)GlcNAc(b1-4)[Fuc(a1-6)]GlcNAc
# Summary of the method: as §1
# [18] = target: Gal(b1-4)GlcNAc(b1-3)Gal(b1-3)GalNAc
# Summary of the method: as §1
# [19] = target: Gal(b1-4)GlcNAc(b1-3)Gal(b1-3)GlcNAc
# Summary of the method: as §1
binder,measurement,setting,value
B1,glycan array binding signal (z-score),[1],0.582
same,glycan array binding signal (z-score),[2],2.08
same,glycan array binding signal (z-score),[3],-0.434
same,glycan array binding signal (z-score),[4],-0.074
same,glycan array binding signal (z-score),[5],-0.179
same,glycan array binding signal (z-score),[6],-0.351
same,glycan array binding signal (z-score),[7],-0.199
same,glycan array binding signal (z-score),[8],0.631
same,glycan array binding signal (z-score),[9],-0.333
same,glycan array binding signal (z-score),[10],-0.128
same,glycan array binding signal (z-score),[11],-0.019
same,glycan array binding signal (z-score),[12],-0.5
same,glycan array binding signal (z-score),[13],-0.227
same,glycan array binding signal (z-score),[14],0.717
same,glycan array binding signal (z-score),[15],0.247
same,glycan array binding signal (z-score),[16],-0.177
same,glycan array binding signal (z-score),[17],5.5
same,glycan array binding signal (z-score),[18],-0.141
same,glycan array binding signal (z-score),[19],-0.222
